The values that follow come from paper PMC4336329 (PLoS ONE, 2015).

Screen size: about 310,000 compounds; about 14,000 (4.5%) showed an effect of 50% or more. Effects have a minus sign here. Some of the results follow.
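Also: peak tail current of the secondary pulse compared with the same well before compound.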

Chain of human ether-à-go-go-related gene (hERG) potassium channel (Q12809 whole entry, looked up): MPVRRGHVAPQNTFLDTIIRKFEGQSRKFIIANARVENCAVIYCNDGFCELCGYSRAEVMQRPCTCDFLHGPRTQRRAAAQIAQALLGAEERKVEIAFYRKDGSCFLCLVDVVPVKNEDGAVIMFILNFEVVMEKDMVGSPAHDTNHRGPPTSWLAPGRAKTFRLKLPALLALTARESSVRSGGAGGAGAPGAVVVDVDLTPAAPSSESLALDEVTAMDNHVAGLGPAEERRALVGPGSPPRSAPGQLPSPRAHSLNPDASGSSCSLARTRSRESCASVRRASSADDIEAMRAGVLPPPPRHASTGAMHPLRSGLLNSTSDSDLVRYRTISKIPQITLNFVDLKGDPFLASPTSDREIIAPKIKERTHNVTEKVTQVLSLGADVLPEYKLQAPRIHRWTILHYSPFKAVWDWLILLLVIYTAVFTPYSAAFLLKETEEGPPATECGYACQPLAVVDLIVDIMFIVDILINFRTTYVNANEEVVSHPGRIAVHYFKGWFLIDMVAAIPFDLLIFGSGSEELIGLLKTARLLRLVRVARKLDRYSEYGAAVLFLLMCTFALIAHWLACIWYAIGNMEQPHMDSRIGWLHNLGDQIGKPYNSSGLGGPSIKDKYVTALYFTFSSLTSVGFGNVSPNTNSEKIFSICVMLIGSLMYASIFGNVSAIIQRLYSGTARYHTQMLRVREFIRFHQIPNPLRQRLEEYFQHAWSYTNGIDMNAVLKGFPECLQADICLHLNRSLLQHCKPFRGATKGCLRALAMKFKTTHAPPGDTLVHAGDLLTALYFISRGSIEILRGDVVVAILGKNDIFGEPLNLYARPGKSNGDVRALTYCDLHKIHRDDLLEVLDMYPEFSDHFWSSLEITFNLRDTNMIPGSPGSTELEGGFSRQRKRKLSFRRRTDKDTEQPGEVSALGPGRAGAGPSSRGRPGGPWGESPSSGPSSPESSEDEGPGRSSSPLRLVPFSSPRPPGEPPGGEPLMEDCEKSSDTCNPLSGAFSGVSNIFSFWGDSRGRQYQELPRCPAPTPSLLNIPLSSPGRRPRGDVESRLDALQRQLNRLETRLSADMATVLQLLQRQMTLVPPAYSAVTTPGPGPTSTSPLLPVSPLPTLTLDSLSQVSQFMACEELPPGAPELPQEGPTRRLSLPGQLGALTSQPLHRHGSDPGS

The assay addresses human ether-à-go-go-related gene (hERG) potassium channel (human, UniProt Q12809). Kind of assay: primary screen, population patch clamp on CHO cells stably expressing hERG.
Take `O=C(CSc1nnc(CNC(=O)c2c(F)cccc2F)o1)NCCc1ccccc1`: the “hERG current change (%, negative = inhibition) at 10uM” value came out at 10.2%. In the case of `CCSc1nnc(NC(=O)/C=C/c2ccco2)s1`, the “hERG current change (%, negative = inhibition) at 10uM” value was -2.02%.

Consider `O=C(CN(CC1CCCO1)C(=O)CCC(=O)Nc1nccs1)NCc1ccccc1` (stereo not drawn), for which the “hERG current change (%, negative = inhibition) at 10uM” value is listed as 4.32%. Take `O=C(CSc1nnnn1-c1ccc2c(c1)OCCO2)Nc1nc2c(s1)CCCC2`: the “hERG current change (%, negative = inhibition) at 10uM” value was found to be 1.75%. Next, `CCc1c(C(=O)NNC(=S)NC2CCCCC2)csc1C`: 16.3%; `C/C(CC(=O)Nc1ccc(C)c(Cl)c1)=N\NC(=O)Cc1ccccc1`: 1.45%. Consider `Cc1cc(C(=O)N/N=C/c2c(C)[nH]n(-c3ccccc3)c2=O)n[nH]1`, for which the “hERG current change (%, negative = inhibition) at 10uM” value was 14.7%.

Consider `O=C(NCC1CCCO1)C(=O)N/N=C/c1cc(Cl)ccc1O` (stereo not drawn), for which the “hERG current change (%, negative = inhibition) at 10uM” value is on record as -2.19%. With `CC(CCc1ccccc1)NC(=O)c1ccccc1F` (stereo not drawn), the “hERG current change (%, negative = inhibition) at 10uM” value is recorded as -4.53%. In the case of `NNC(=O)c1sc2nc(N3CCOCC3)c3c(c2c1N)CCCC3`, the “hERG current change (%, negative = inhibition) at 10uM” value is listed as 11%. Next, `Cc1ccc(N(CCO)C(=S)Nc2ccccc2)cc1`: 19.9%; `Cc1ccc(CCNC(=O)c2cccc(N3CCCC3=O)c2)cc1`: -7.86%; `O=C(Nc1ccc(F)cc1)Nc1ccc2c(c1)OCO2`: 12.6%. Take `N#CCCN1CCN(S(=O)(=O)c2cc(Cl)ccc2Cl)CC1`: the “hERG current change (%, negative = inhibition) at 10uM” value is given as -12.3%. Take `CCN(CC(=O)NCc1cccs1)C(=O)CCCOc1ccccc1`: the “hERG current change (%, negative = inhibition) at 10uM” value was -35.2%.

Regarding `O=C(COC(=O)C1CC(=O)N(Cc2ccco2)C1)c1ccc(OC(=O)c2ccco2)cc1` (stereo not drawn), the “hERG current change (%, negative = inhibition) at 10uM” value was -3.5%. Next, `CC(C)N1CCC(N2CCN(Cc3cc4c(cc3Cl)OCO4)CC2CCO)CC1` (stereo not drawn): -18.5%.

As for `CN(C)C(=O)c1ccc(Cl)cc1[N+](=O)[O-]`, the “hERG current change (%, negative = inhibition) at 10uM” value was found to be 27.1%. In the case of `CCC(=O)Nc1ccc(NC(=O)CN2CCCC(C)C2)c(Cl)c1` (stereo not drawn), the “hERG current change (%, negative = inhibition) at 10uM” value was 0.527%. `CN(CC(=O)Nc1c(Cl)cccc1Cl)C(=O)C1CC(=O)N(Cc2ccccc2)C1` (stereo not drawn): the “hERG current change (%, negative = inhibition) at 10uM” value is 21.8%.

As to `C=CCOc1ccc2cccc(/C=N/NC(=O)c3cc4cc([N+](=O)[O-])ccc4s3)c2c1`, the “hERG current change (%, negative = inhibition) at 10uM” value was determined as 15.9%. For `COC(=O)/C(C#N)=C/c1c(Oc2cc(C)cc(C)c2)nc2c(C)cccn2c1=O`, the “hERG current change (%, negative = inhibition) at 10uM” value was -11.2%. On to `CCOc1ccc(NC(=O)NCc2ccccn2)cc1`, for which the “hERG current change (%, negative = inhibition) at 10uM” value turned out to be 1.86%. Regarding `Cc1nc2ccc(S(=O)(=O)NCC(=O)N3CCCCC3)cc2s1`, the “hERG current change (%, negative = inhibition) at 10uM” value is 7.23%. `Nc1nc(SCC(=O)NCC2CCCO2)n[nH]1` (stereo not drawn): the “hERG current change (%, negative = inhibition) at 10uM” value was -8.37%. For `COC(=O)c1ccc(NS(=O)(=O)c2ccc(Cl)cc2)o1`, the “hERG current change (%, negative = inhibition) at 10uM” value stood at 0.192%. Regarding `Cc1cccc(-n2ccnc2SCC(=O)Nc2nccs2)c1`, the “hERG current change (%, negative = inhibition) at 10uM” value is recorded as -8.75%. Take `CCOC(=O)c1ccc(NC(=O)C2CCC(CNc3c(N4CCOCC4)c(=O)c3=O)CC2)cc1` (stereo not drawn): the “hERG current change (%, negative = inhibition) at 10uM” value is given as 9.58%. Consider `COc1ccc(-n2c(N)c(C(=O)NCc3ccco3)sc2=S)cc1`, for which the “hERG current change (%, negative = inhibition) at 10uM” value is recorded as -3.38%.

Turning to `O=c1c2c(nc3nc(Cc4ccccc4)[nH]n13)CCC2`, the “hERG current change (%, negative = inhibition) at 10uM” value was found to be 8.83%. As for `CCCCC[C@H](O)/C=C/[C@@H]1[C@@H](C/C=C\CCCC(=O)OC)[C@@H](O)C[C@H]1O`, the “hERG current change (%, negative = inhibition) at 10uM” value came out at 2.11%. As to `Oc1ccc(C2NCc3ccccc3-n3cccc32)cc1Cl` (stereo not drawn), the “hERG current change (%, negative = inhibition) at 10uM” value is given as -17.2%.

With `O=C(NCc1cccc(C(F)(F)F)c1)c1cccc(S(=O)(=O)NCc2ccccc2)c1`, the “hERG current change (%, negative = inhibition) at 10uM” value stood at 4.24%. `O=C(Cn1cccn1)N1CCCC(N2CCN(c3ccccc3F)CC2)C1` (stereo not drawn): the “hERG current change (%, negative = inhibition) at 10uM” value is on record as 8.87%. Next, `COc1ccc(C(=O)Nc2ccc3[nH]ncc3c2)cc1OC`: -13.5%; `Cc1ccnc(NC(=O)CCC(=O)N(CC(=O)NCc2ccccc2)c2ccc3c(c2)OCO3)c1`: -3.85%; `CSc1cccc(NC(=O)c2nnn(Cc3ccccc3)c2N)c1`: 15.2%. Next, `Cc1ccc(C(=O)NCC(=O)Nc2ccc(C)c(S(=O)(=O)Nc3ccc(Cl)cc3)c2)s1`: 13%. Consider `Cc1cccc(N2C(=O)c3ccc(C(=O)Nc4ccccn4)cc3C2=O)c1`, for which the “hERG current change (%, negative = inhibition) at 10uM” value amounted to 9.66%. With `Cc1cc2c(Nc3ccccc3)ncnc2s1.Cl`, the “hERG current change (%, negative = inhibition) at 10uM” value came out at 4.58%. On to `CC(=O)c1ccc(NC(=O)CSc2nnc3ccc(-c4ccccn4)nn23)cc1`, for which the “hERG current change (%, negative = inhibition) at 10uM” value is -10.5%. As to `CC1=C(C)CS(=O)N(S(=O)(=O)c2ccccc2)C1` (stereo not drawn), the “hERG current change (%, negative = inhibition) at 10uM” value is -16.3%. With `CC(C)OC(=O)CN1CCN(S(=O)(=O)c2cc(Cl)ccc2Cl)CC1`, the “hERG current change (%, negative = inhibition) at 10uM” value was -31.7%.

Regarding `O=C1C=C(c2cccc(O)c2)C[C@@H](c2ccc(F)cc2)C1`, the “hERG current change (%, negative = inhibition) at 10uM” value is reported as 6.37%. With `O=C(O)/C=C\C(=O)Nc1ccc(OC(F)F)cc1`, the “hERG current change (%, negative = inhibition) at 10uM” value turned out to be 11.2%. Take `Cc1[nH]c2ccc(OC(F)(F)F)cc2c1CCN1C(=O)c2ccc(C(=O)O)cc2C1=O`: the “hERG current change (%, negative = inhibition) at 10uM” value turned out to be 36.3%. Next, `CCN(CC)S(=O)(=O)c1ccc2oc(C(=O)NCCN3CCOCC3)c(C)c2c1`: -5.3%. The result for `O=C(COC(=O)C1CCC1)Nc1ccc(OC(F)F)cc1` reads 11.3%. For `O=C(COc1ccccc1)NCCS(=O)(=O)N1CCN(c2ccccc2)CC1`, the “hERG current change (%, negative = inhibition) at 10uM” value is on record as -3.18%. With `CCOc1ccc(Nc2ccc(N3C(=O)CCC3=O)cc2[N+](=O)[O-])cc1`, the “hERG current change (%, negative = inhibition) at 10uM” value came out at 2.09%. With `Cn1c(SCC(=O)Nc2ccc3c(c2)OCCO3)nnc1-c1ccco1`, the “hERG current change (%, negative = inhibition) at 10uM” value is on record as 8.89%. Consider `Cn1c2ccccc2c2nnc(N/N=C/c3ccc(O)cc3)nc21`, for which the “hERG current change (%, negative = inhibition) at 10uM” value is listed as -0.978%. The result for `COc1ccc(-n2c(SC3CCOC3=O)nc3ccccc3c2=O)cc1OC` (stereo not drawn) reads -4.64%; that for `Cc1cc(OCC(=O)NC2CC(C)(C)NC(C)(C)C2)c(C)cc1Br`, -26.8%.

As to `O=C(N1CCOCC1)N1CCN(C(c2ccccc2)c2ccccc2)CC1`, the “hERG current change (%, negative = inhibition) at 10uM” value is reported as 12.8%. Next, `Cc1ccc2cc3cc(C(=O)NCCCN4CC(C)CC(C)C4)oc3nc2c1` (stereo not drawn): -62.9%. On to `COc1ccccc1NC(=O)/C(=C\c1cccnc1)NC(=O)c1ccccc1`, for which the “hERG current change (%, negative = inhibition) at 10uM” value is -65.5%.
